Results are given in words; binding and its absence hold for the method and conditions named. Some entries that bind do so weakly or less than the wild type.
Columns and labels:
[1] = molecular target: T1, CXCL4/CTF, synthetic peptide encompassing amino-acid sequence 47-70 of CXCL4 (human); assay: cell attachment assay; HUVECs plated on microtiter wells coated with CXCL4 or CXCL4/CTF; 60 min at 37°C in serum-free medium; the integrins were assigned with 10 µg/ml blocking anti-integrin antibodies (LM609, AV1, B3A, P1F6, JBS5, P1D6, CD29); only the target purified
T1 sequence (peptide): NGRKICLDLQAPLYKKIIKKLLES

Chains of the proteins cited; added tags and fusions are not shown. Lines headed by an entry give the natural chain unless they say otherwise; changes in a name come on top.
UniProt P08648: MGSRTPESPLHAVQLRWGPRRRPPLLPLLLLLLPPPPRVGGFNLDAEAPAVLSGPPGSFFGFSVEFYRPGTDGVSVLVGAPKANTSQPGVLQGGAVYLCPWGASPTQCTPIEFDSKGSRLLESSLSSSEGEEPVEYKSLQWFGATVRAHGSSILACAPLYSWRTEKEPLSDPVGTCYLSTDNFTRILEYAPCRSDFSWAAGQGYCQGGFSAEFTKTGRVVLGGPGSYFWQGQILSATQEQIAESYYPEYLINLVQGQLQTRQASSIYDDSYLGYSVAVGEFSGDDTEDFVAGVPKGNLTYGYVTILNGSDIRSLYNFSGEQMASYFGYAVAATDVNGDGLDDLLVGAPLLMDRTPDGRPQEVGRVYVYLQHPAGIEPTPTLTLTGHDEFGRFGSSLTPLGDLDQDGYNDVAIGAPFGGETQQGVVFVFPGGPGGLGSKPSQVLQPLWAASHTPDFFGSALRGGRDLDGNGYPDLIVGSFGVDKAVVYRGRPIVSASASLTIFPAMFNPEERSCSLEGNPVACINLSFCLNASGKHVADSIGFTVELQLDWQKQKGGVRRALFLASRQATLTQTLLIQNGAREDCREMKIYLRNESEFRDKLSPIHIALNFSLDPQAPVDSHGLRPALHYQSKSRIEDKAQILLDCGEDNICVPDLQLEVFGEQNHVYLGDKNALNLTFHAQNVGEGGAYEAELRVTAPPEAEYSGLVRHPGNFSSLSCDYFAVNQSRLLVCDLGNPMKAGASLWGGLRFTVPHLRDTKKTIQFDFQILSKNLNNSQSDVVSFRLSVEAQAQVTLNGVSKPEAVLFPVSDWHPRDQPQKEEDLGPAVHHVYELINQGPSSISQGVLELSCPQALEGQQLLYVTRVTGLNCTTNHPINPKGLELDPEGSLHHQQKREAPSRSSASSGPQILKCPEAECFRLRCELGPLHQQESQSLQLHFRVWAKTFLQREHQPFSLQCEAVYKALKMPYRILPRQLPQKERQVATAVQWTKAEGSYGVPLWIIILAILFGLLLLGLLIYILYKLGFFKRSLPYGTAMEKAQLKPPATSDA
UniProt P06756: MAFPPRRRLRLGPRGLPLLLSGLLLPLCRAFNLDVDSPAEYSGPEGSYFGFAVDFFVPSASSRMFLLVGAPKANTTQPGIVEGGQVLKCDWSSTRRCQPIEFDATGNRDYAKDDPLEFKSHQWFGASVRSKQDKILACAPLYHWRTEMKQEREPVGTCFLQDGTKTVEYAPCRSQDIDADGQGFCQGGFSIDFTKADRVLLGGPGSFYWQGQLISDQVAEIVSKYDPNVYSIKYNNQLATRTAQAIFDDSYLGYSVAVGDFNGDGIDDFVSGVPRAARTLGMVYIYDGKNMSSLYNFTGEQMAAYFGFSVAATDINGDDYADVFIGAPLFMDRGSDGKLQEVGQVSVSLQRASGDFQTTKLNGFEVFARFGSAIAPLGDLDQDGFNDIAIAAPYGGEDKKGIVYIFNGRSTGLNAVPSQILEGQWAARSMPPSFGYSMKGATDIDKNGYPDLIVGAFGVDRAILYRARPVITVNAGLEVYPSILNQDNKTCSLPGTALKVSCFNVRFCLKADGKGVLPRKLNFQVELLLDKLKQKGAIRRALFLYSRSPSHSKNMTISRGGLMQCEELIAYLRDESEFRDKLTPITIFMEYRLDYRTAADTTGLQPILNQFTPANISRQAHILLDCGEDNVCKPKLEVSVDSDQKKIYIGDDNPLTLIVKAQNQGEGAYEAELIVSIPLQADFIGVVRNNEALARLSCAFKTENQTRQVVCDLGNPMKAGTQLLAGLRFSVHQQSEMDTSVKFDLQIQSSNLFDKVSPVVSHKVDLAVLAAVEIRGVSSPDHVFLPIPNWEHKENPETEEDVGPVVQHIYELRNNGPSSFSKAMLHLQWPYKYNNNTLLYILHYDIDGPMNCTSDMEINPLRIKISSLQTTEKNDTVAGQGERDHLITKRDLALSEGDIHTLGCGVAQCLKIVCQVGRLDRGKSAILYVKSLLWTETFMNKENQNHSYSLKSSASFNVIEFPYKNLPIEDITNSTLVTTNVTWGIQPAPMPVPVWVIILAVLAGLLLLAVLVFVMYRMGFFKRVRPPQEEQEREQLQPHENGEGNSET

[2] = molecular target: T2, CXCL4/CTF-S, scrambled peptide containing the amino acids of CXCL4/CTF; assay: cell adhesion and spreading on coated coverslips; αvβ3-CHO cells or HUVECs plated for 4 h at 37°C in serum-free medium on coverslips coated with 25 µg/ml peptide; phase contrast and confocal microscopy; only the target purified
T2 sequence (peptide): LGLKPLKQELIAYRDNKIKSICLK

[3] = molecular target: T1, CXCL4/CTF, synthetic peptide encompassing amino-acid sequence 47-70 of CXCL4 (human); assay: cell attachment assay; as a2, but αvβ3-CHO cells incubated with 10 mM EDTA for 15 min before plating on CXCL4 or CXCL4/CTF; only the target purified
[4] = molecular target: T1, CXCL4/CTF, synthetic peptide encompassing amino-acid sequence 47-70 of CXCL4 (human); assay: cell attachment assay; αvβ3-CHO and mock-transfected CHO cells plated on microtiter wells coated with CXCL4 or CXCL4/CTF at the indicated concentrations; 60 min at 37°C in serum-free medium with 0.5% BSA; attached cells stained with Coomassie blue, absorbance at 620 nm; also with 0.25 mM Mn2+ or 2 mM Mg2+; only the target purified

binding [1] | binding [2] | binding [3] | binding [4] | Substance
binds |  |  |  | α5β1 integrin on the surface of HUVECs (from UniProt P08648 42-1049; P05556 21-798) (receptor)
 | no binding (tested: 25 µg/ml (coating)) | no binding (condition: with 10 mM EDTA) | binds | human αvβ3 integrin on CHO cells (αvβ3-CHO, clone A06) (from UniProt P06756 31-1048; P05106 27-788) (receptor)
binds |  |  |  | αvβ3 integrin on the surface of HUVECs (from UniProt P06756 31-1048; P05106 27-788) (receptor)
binds |  |  |  | αvβ5 integrin on the surface of HUVECs (from UniProt P06756 31-1048; P18084 24-799) (receptor)

— paper PMC2481302
